T1: UNK ZnF1-3 (human, UniProt Q9C0B0 31-174)
T1 sequence: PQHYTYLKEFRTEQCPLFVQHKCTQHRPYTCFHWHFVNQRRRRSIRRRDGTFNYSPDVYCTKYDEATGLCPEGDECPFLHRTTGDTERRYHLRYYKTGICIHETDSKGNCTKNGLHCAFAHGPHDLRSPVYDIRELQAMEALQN

B1: chrX:71549400:71549401:+_ENSMUSG00000019087_ENSMUST00000019231|mus_hu|mus_mus_mus_hu_False|28_58 (ssRNA)
RNA: GGGAGUUCUACAGUCCGACGAUCGCAGUAGGAAGAGGGAAGCUCUUCAGUCCAGUGCGCUGCAGGGUGGGAAAGCACAACCUAGACCACCGUCCCACCCUCAACCCUCUCAGGUGUACAGGGUCACACAAUCUGGGUCAAAGACAACAGAGGAUUGAGCAUCA
B2: chr22:32894248:32894249:+_ENSG00000100225_ENST00000397426|hu_hu|FALSE|FALSE (ssRNA)
RNA: GGGAGUUCUACAGUCCGACGAUCGGGAAGUGUUGGUCUUUGGUCAUAUUCACCCCCGAUAAUUCCUGGAGGAAGGCGGGAGCUAGGAAAUGGCCUAGGGUGCAAGGGGUUGGGAUAGAAUGGAAUGGUGUGAGUUGACGAUGGCAACAGAGGAUUGAGCAUCA
B3: 9335903_9336023_364_3pUTR_ENSG00000166471_ENST00000528080|human|control|control (ssRNA)
RNA: GGGAGUUCUACAGUCCGACGAUCCCCGCGUCCCCGCUGCCCCGUCCCCCACGGGGGUCGUGUGGUGAGCGCCCAACUGCGAUCGUUCGGCGACUCUGCCUUUCGCCAUGGCUGCUGCAAGGUGAAGGGAGCGGUGCGGUGCCGCAACAGAGGAUUGAGCAUCA
B4: chr4:148554787:148554788:-_ENSMUSG00000063077_ENSMUST00000060537|mus_mus|FALSE|FALSE (ssRNA)
RNA: GGGAGUUCUACAGUCCGACGAUCCUACAAGUCUUAGCACAAGAAUAAGAAGAGUCAGAGCCAUGGAGAGGGAACAGAGAGCUAGAGAAGUGCAGGGUGAGGAGGGAAAAGUCGUUAAGCCACAGGAUUACAUACAAGAAUAACCAACAGAGGAUUGAGCAUCA
B5: chr15:42709458:42709459:-_ENSG00000103994_ENST00000263805|hu_hu|FALSE|FALSE (ssRNA)
RNA: GGGAGUUCUACAGUCCGACGAUCUCACCAAGAAAGGGAAGAGAGUGGCCUGUGUGGGGGGCCAAUGUGAAAAUAGUUCAACUAAUGACUUCCCAACGUGGGAGGCAAAAAACUUCAUGAAUCAAUUUUGCUGUCAUCUUCAGCCAACAGAGGAUUGAGCAUCA
B6: chr14:62224477:62224478:+_ENSMUSG00000035235_ENSMUST00000039562|mus_mus|FALSE|FALSE (ssRNA)
RNA: GGGAGUUCUACAGUCCGACGAUCUUCACCAAAAAUGAAAAACCCAUCUGUCAUCUGUUCCCAGUAAAAAACAGAUUGUUCUAUAAAAUCAGCAGACUUAGUCAGGUAAGAAUUGAAGCUUGAAAGAUAGUCUUUCCAAGUUGCCAACAGAGGAUUGAGCAUCA
B7: chr12:54651456:54651457:-_ENSG00000094916_ENST00000209875|hu_hu|FALSE|FALSE (ssRNA)
RNA: GGGAGUUCUACAGUCCGACGAUCUGUCAGCUGUCCGCUUGGUUUUCUUUCCCAUGUCGCACACCGUUCCACCUGAAAGACUAAGGCCACCAGGUCCCCGGGAUUGAGAGUGAUCACUCACGCUAACGUCUGCCCUGUUCCUGUCAACAGAGGAUUGAGCAUCA
B8: chr10:61005495:61005496:+_ENSG00000165443_ENST00000486074|hu_mus|FALSE|FALSE (ssRNA)
RNA: GGGAGUUCUACAGUCCGACGAUCGGACAACCUGGGGACAUCGUUGAAAGUGGUGGACAAGGGCGGGCAAGAGGAGACACGGAAAGGCUCUGAAUGACAGAGUUUGCUUUUGGUGACAGCGGCAUAUGCAUGCUUCAGUGGGGACAACAGAGGAUUGAGCAUCA
B9: chr16:46836887:46836888:-_ENSG00000155330_ENST00000285697|hu_hu|FALSE|FALSE (ssRNA)
RNA: GGGAGUUCUACAGUCCGACGAUCUUCAGCAGAUUUUGCAAACAAGUAUCAGAGAAUAAGUCUUUGAUUGAUAAUUUUUCUAUUUAUUUCUGCCAAGGCGACUGAAAACACGAAAGCCUUUUCAUCAGACAGGUUAGCAUAGAUCAACAGAGGAUUGAGCAUCA
B10: chr6:134305517:134305518:+_ENSG00000028839_ENST00000367871|hu_mus|FALSE|FALSE (ssRNA)
RNA: GGGAGUUCUACAGUCCGACGAUCGUUACACACUGCCAAAACAUUCACCACCUUAAAAUCUGUGAAGAUGACCUGAAAACCUAGUUUCUGCAGACUACGGGCUAAACGUCUGGCACCAAAUUUAGCUUCUUCUUCACUUGUUGCCAACAGAGGAUUGAGCAUCA
B11: chr14:22137345:22137346:+_ENSMUSG00000039197_ENSMUST00000045376|mus_hu|motif|central (ssRNA)
RNA: GGGAGUUCUACAGUCCGACGAUCAAAAAGUAUAUCAACAUAAGGCAUAACUUUCAUCAAUGAUUCCUUGUAGAACUGGCGGAUAAACGGUGCAGAUAGAUUCAAAGUGAAAAUCCUGUUGUUUUCAGAAGCAUGGUGAGCCACCAACAGAGGAUUGAGCAUCA
B12: chr4:48249827:48249828:-_ENSMUSG00000028343_ENSMUST00000030028|mus_mus|motif|central (ssRNA)
RNA: GGGAGUUCUACAGUCCGACGAUCCUCAAAAAUUGGAUGCAACAUCUGGCUGAAACGACACCAGUCAGCAUAAAAAUUUACGGAAGCAACAUCAGCAUUAUUUAAAAUUUCAUCUAUAUUCUCUGAAUCAAGACUUGCUAUUUCCAACAGAGGAUUGAGCAUCA
B13: chr17:56552419:56552420:-_ENSMUSG00000013236_ENSMUST00000086828|mus_mus|mus_mus_mus_hu_False|18_108 (ssRNA)
RNA: GGGAGUUCUACAGUCCGACGAUCAAAGUUUUUUUCUUUUAAAAAAAAUGAAAUGUCACGGGAUACAGUUACACUGAGAGUUUUAAAAGAAAGCUGGAUUCUGGUCCCAGCCCAGUGGCAGGCAGGGGCAGAGCGGGGAGGAGCCAACAGAGGAUUGAGCAUCA
B14: chr2:217001844:217001845:+_ENSG00000079246_ENST00000392132|hu_hu|hu_hu_hu_mus_False|18_38 (ssRNA)
RNA: GGGAGUUCUACAGUCCGACGAUCACCAACUUGAGGAUUAGAUCUUUUGUCAUAAGCAUAUCGGACGAUGGCGACCAUGUUUAACUCAUCCAAAGCAUGAAUCAGGGAGGAAAGGGCAACUGCAGCUGCCUCAUCAUCCUUUGCCAACAGAGGAUUGAGCAUCA
B15: chr18:56819859:56819860:+_ENSG00000166562_ENST00000588875|hu_mus|hu_hu_hu_mus_True|38_108 (ssRNA)
RNA: GGGAGUUCUACAGUCCGACGAUCAACUUUGAUUACUCUGUGAACUAUCGGAAUGUCUCUUCCUUCAACCUUAAAAACAACUAUUUCACCAGCUCUGAUUGGGUCUUCCCGGAAAUUCGUGAGGAACAGCAGAUCUCCUCUGUGCAACAGAGGAUUGAGCAUCA
B16: chr17:49118984:49118985:-_ENSG00000008294_ENST00000510283|hu_mus|FALSE|FALSE (ssRNA)
RNA: GGGAGUUCUACAGUCCGACGAUCUCCUUUCUGAGUGUCAGGUGUAAGCAAUCCAUCUCCAGCAGGUAGAGGGAAAAUCCCUAAUGAUAUAGGACGUUCUUUUCUGAGUAUCCUUGGUAGGUUCUGCGUCAGCGCUGGCACCCCCAACAGAGGAUUGAGCAUCA
B17: chr12:48362563:48362564:+_ENSG00000134291_ENST00000256686|hu_hu|hu_hu_hu_mus_False|8_38 (ssRNA)
RNA: GGGAGUUCUACAGUCCGACGAUCUCCGUCAAGCCCUUCGAUAGACCCUUGCGGGGGAAACUGUAAUCACUUUGUAUGGGGAAGGAAAAGAAACGCCAACACACUUUCAAAAAGCGGGGGUGGGGUGUCCCAGGCCUGGGAGGUCAACAGAGGAUUGAGCAUCA
B18: chr1:225611761:225611762:-_ENSG00000143815_ENST00000272163|hu_mus|hu_hu_hu_mus_True|1_8 (ssRNA)
RNA: GGGAGUUCUACAGUCCGACGAUCCCAGGCCAUCGGCCUCUGACCACUUCACCCUCAACAAACUUCCUACUUGGCAUUUUCUAAAAUUAGUCUGGCCGCGCUCCGGCGGGAACUCCAGCCACUCCAGGGAGAAUAGUCGCACAGCAACAGAGGAUUGAGCAUCA
B19: chr16:36052476:36052477:-_ENSMUSG00000003955_ENSMUST00000004057|mus_hu|motif|central (ssRNA)
RNA: GGGAGUUCUACAGUCCGACGAUCUUCAAAUCAGAGCUUCUGGUAAGCCUUAGAGAUGAGGAAACAUCUCUUUCACAUAACCGGAAACAGCUUCUCAUAAUUGCACUGGCAAACAGUUCUUAUAAGAUACUUAAAUCUUUGCGACAACAGAGGAUUGAGCAUCA
B20: chr2:202488911:202488912:-_ENSG00000155755_ENST00000286196|hu_mus|hu_hu_hu_mus_False|78_98 (ssRNA)
RNA: GGGAGUUCUACAGUCCGACGAUCAUUGAAACAUUUUCAUAAUAUUGCAGUAGCAUUCAGUAUUAUAGUAACAAAAGCUCAAUUGUAAAUACAUGUAUCUUAUAAAAAUACACUUAAAAACACGAGUGGGGAGCGCAGGCGCCACAACAGAGGAUUGAGCAUCA
B21: chr7:75932113:75932114:+_ENSG00000106211_ENST00000248553|hu_hu|hu_hu_hu_mus_False|28_28 (ssRNA)
RNA: GGGAGUUCUACAGUCCGACGAUCCUGCGACCACUCAUCGGGCAACCGGGGCACCCCGAAAGCUUGAUCGAAGAGGCGGCUGUGUGCAGGGUACCAGUCCCGGAAUGCCCAGCUGGGCGGGCUCCGCAGCAGCGAGAAGGGCACCAACAGAGGAUUGAGCAUCA
B22: 23376950_23377070_1096_CDS_ENSMUSG00000026158_ENSMUST00000027343|mouse|control|control (ssRNA)
RNA: GGGAGUUCUACAGUCCGACGAUCGUGUGUAGAAGUUUGACCAUUGGAGCCCGACGCGGGCAGAGUCGGGGUUUUCUGGGCUUUGCUUCGCUCUGGCAGUUCUUUCUUAGGUGGCCCCCAGAUGAAAUUCUCUGAUGGUGUGUACAACAGAGGAUUGAGCAUCA

Here are results for 22 molecules from article PMC12136788.

Some of the results follow.

The assay deals with T1, UNK ZnF1-3. In words: nsRBNS (natural sequence RNA bind-n-seq); RBNS binding buffer (assumed for nsRBNS): 25 mM Tris pH 7.5, 150 mM KCl, 3 mM MgCl2, 0.01% Triton X-100, 500 ug/ml BSA, 20 U/ml SUPERase-In, 4 C; UNK is unkempt and MSI1 is Musashi-1; names of the RNAs are library labels; protein concentration not given here; high values mean tight binding.
For the molecule B1, the binding signal stood at 0.903 enrichment R.

In turn, B2 had a binding signal of 1.32 enrichment R.

In the case of B3, the binding signal was determined as 0.79 enrichment R.

In turn, B4 had a binding signal of 2.81 enrichment R.

Molecule B5 displayed a binding signal of 1.51 enrichment R.

In the case of B6, the binding signal came out at 1.1 enrichment R.

Take B7: the binding signal worked out at 1.03 enrichment R.

Molecule B8 came in with a binding signal of 1.33 enrichment R.

Consider B9, for which the binding signal worked out at 0.904 enrichment R.

B10 came in with a binding signal of 0.972 enrichment R.

On to B11, for which the binding signal is 1.21 enrichment R.

Consider B12, for which the binding signal is 2.1 enrichment R.

B13 returned a binding signal of 1.56 enrichment R.

The molecule B14 gave a binding signal of 1.41 enrichment R.

Regarding B15, the binding signal amounted to 0.899 enrichment R.

Consider B16, for which the binding signal turned out to be 0.73 enrichment R.

B17 displayed a binding signal of 2.09 enrichment R.

In the case of B18, the binding signal amounted to 1.15 enrichment R.

In turn, B19 had a binding signal of 0.608 enrichment R.

For B20, the binding signal amounted to 0.72 enrichment R.

Take B21: the binding signal was 0.498 enrichment R.

Turning to B22, the binding signal came to 0.883 enrichment R.
